# Measurements: a collection of fitness landscapes (doi:10.1126/science.1257360)
# The other results are listed elsewhere or left out.
# B1: PhoQ; a variant is named by its letters at X, in order, P23837 (parent)
# chain: MKKLLRLFFPLSLRVRFLLATAAVVLVLSLAYGMVALIGYSVSFDKTTFRLLRGESNLFYTLAKWENNKLHVELPENIDKQSPTMTLIYDENGQLLWAQRDVPWLMKMIQPDWLKSNGFHEIEADVNDTSLLLSGDHSIQQQLQEVREDDDDAEMTHSVAVNVYPATSRMPKLTIVVVDTIPVELKSSYMVWSWFIYVLSANLLLVIPLLWVAAWWSLRPIEALAKEVRELEEHNRELLNPATTRELTSLVRNLNRLLKSERERYDKYRTTLTDLTHSLKTPLXXLQXXLRSLRSEKMSVSDAEPVMLEQISRISQQIGYYLHRASMRGGTLLSRELHPVAPLLDNLTSALNKVYQRKGVNISLDISPEISFVGEQNDFVEVMGNVLDNACKYCLEFVEISARQTDEHLYIVVEDDGPGIPLSKREVIFDRGQRVDTLRPGQGVGLAVAREITEQYEGKIVAGESMLGGARMEVIFGRQHSAPKDE
# Variants of: B1
# Test: enrichment ratio after two sorts for PhoP signalling (ratio (wild type AVST 3.29)); higher = more functional
# Conditions: with PhoP (E. coli)
row,Variant,enrichment ratio
1,LDYG,≤ 0.25
2,KCWS,≤ 0.25
3,TFHT,≤ 0.25
4,EELW,≤ 0.25
5,GKEE,≤ 0.25
6,KFWS,≤ 0.25
7,DPTP,≤ 0.25
8,TGWH,19.8
9,YEPQ,≤ 0.25
10,QSAH,≤ 0.25
11,MYCG,≤ 0.25
12,NGCD,≤ 0.25
13,EASI,≤ 0.25
14,LMNL,≤ 0.25
15,TQRL,≤ 0.25
16,LHCV,≤ 0.25
17,NAHK,≤ 0.25
18,TCMS,10.9
19,NTYA,≤ 0.25
20,QLFW,≤ 0.25
21,RKFL,≤ 0.25
22,VQMG,≤ 0.25
23,QNDI,≤ 0.25
24,LSVM,≤ 0.25

row,Variant,enrichment ratio
1,PCQT,≤ 0.25
2,VESF,≤ 0.25
3,VSTM,14.3
4,DFKY,≤ 0.25
5,DDNN,≤ 0.25
6,PRCA,≤ 0.25
7,VEHL,≤ 0.25
8,HLMN,≤ 0.25
9,PKSL,≤ 0.25
10,KCTK,≤ 0.25
11,SSTF,7.3
12,QNPR,≤ 0.25
13,VTAD,≤ 0.25
14,GGNA,≤ 0.25
15,LEWF,≤ 0.25
16,TYIR,0.362
17,AECY,9.94
18,NMKP,≤ 0.25
19,NRGL,≤ 0.25
20,VLME,≤ 0.25
21,TGEM,≤ 0.25
22,NVPK,≤ 0.25
23,FMAN,≤ 0.25
24,KAYN,≤ 0.25

row,Variant,enrichment ratio
1,HPMS,≤ 0.25
2,TCWF,0.548
3,LPYV,0.296
4,LYFL,≤ 0.25
5,MDPK,≤ 0.25
6,KMFR,≤ 0.25
7,GSKC,≤ 0.25
8,HPME,≤ 0.25
9,TRKI,≤ 0.25
10,KDYK,≤ 0.25
11,YMCP,≤ 0.25
12,QTWG,≤ 0.25
13,ARNH,≤ 0.25
14,RQTI,≤ 0.25
15,DELN,≤ 0.25
16,KPES,≤ 0.25
17,NDTI,≤ 0.25
18,RDWR,≤ 0.25
19,PTIA,≤ 0.25
20,RWCY,≤ 0.25
21,PLCS,≤ 0.25
22,YRYK,≤ 0.25
23,WMRN,≤ 0.25
24,FVPL,≤ 0.25

row,Variant,enrichment ratio
1,NQVE,≤ 0.25
2,EVEG,≤ 0.25
3,TAQG,2.47
4,LVAP,≤ 0.25
5,FWIM,≤ 0.25
6,ATKC,≤ 0.25
7,QNYD,≤ 0.25
8,PVIK,≤ 0.25
9,KDHT,≤ 0.25
10,YPWN,≤ 0.25
11,EFRV,≤ 0.25
12,ITYR,≤ 0.25
13,SVLW,1.53
14,STKC,≤ 0.25
15,KAMW,0.482
16,SETE,5.75
17,VKHN,≤ 0.25
18,RQMY,≤ 0.25
19,GITV,9.69
20,IEKC,≤ 0.25
21,NVGY,≤ 0.25
22,THDP,≤ 0.25
23,DRWF,≤ 0.25
24,SPFN,≤ 0.25

row,Variant,enrichment ratio
1,WPCN,≤ 0.25
2,SGNN,≤ 0.25
3,NHYL,≤ 0.25
4,KYYQ,≤ 0.25
5,RLME,≤ 0.25
6,QNNM,≤ 0.25
7,RHHN,≤ 0.25
8,IAIW,≤ 0.25
9,SEMM,32.5
10,NHSK,≤ 0.25
11,ILDM,≤ 0.25
12,TSSA,11.3
13,IMPY,≤ 0.25
14,YDTP,≤ 0.25
15,EYIE,≤ 0.25
16,RACN,≤ 0.25
17,TWRL,≤ 0.25
18,WALS,0.433
19,STTN,19.3
20,DEDM,≤ 0.25
21,DYKP,≤ 0.25
22,MKFM,≤ 0.25
23,YKYV,≤ 0.25
24,EMQS,≤ 0.25

row,Variant,enrichment ratio
1,GQVQ,≤ 0.25
2,ANHE,≤ 0.25
3,SYEV,≤ 0.25
4,GYEG,≤ 0.25
5,KIAG,≤ 0.25
6,KCCA,≤ 0.25
7,QPIY,≤ 0.25
8,AALI,11.9
9,NAPI,≤ 0.25
10,HTGD,≤ 0.25
11,RKHT,≤ 0.25
12,IFMI,≤ 0.25
13,VLRH,≤ 0.25
14,ARQN,≤ 0.25
15,DFLR,≤ 0.25
16,PDKC,≤ 0.25
17,VWAH,≤ 0.25
18,YPNW,≤ 0.25
19,MVQW,≤ 0.25
20,MHNV,≤ 0.25
21,TPAC,≤ 0.25
22,KFFT,≤ 0.25
23,MDEL,≤ 0.25
24,KTTP,≤ 0.25

row,Variant,enrichment ratio
1,KIYC,≤ 0.25
2,YTWD,≤ 0.25
3,QHWF,≤ 0.25
4,TNWA,≤ 0.25
5,RKPI,≤ 0.25
6,WMWP,≤ 0.25
7,QVIF,≤ 0.25
8,STDG,≤ 0.25
9,MNTI,13.1
10,IMFT,≤ 0.25
11,MFPN,≤ 0.25
12,FFHA,≤ 0.25
13,DYDL,≤ 0.25
14,YSDV,≤ 0.25
15,HRIT,≤ 0.25
16,TSTV,26.5
17,KTMN,≤ 0.25
18,RPKI,≤ 0.25
19,LSLV,5
20,NDQK,≤ 0.25
21,QDSV,≤ 0.25
22,SSHY,≤ 0.25
23,FFIQ,≤ 0.25
24,FRHK,≤ 0.25

row,Variant,enrichment ratio
1,PHYY,≤ 0.25
2,DQFM,≤ 0.25
3,VQEM,≤ 0.25
4,GPLA,≤ 0.25
5,AGWH,≤ 0.25
6,FEVL,1.99
7,AYSN,≤ 0.25
8,LKWH,≤ 0.25
9,VPSF,≤ 0.25
10,APFL,≤ 0.25
11,GRVP,≤ 0.25
12,VFIA,≤ 0.25
13,PRVF,≤ 0.25
14,YQLC,≤ 0.25
15,NRAD,≤ 0.25
16,NSSG,≤ 0.25
17,QGAI,3.08
18,RFCF,≤ 0.25
19,RVWE,≤ 0.25
20,NAPE,≤ 0.25
21,ESPL,≤ 0.25
22,INMN,≤ 0.25
23,ATLS,10.6
24,LRVN,≤ 0.25

row,Variant,enrichment ratio
1,PHVM,≤ 0.25
2,EIMA,≤ 0.25
3,GSQV,≤ 0.25
4,AHQK,≤ 0.25
5,WKTI,≤ 0.25
6,YRNG,≤ 0.25
7,VYLM,≤ 0.25
8,YGIV,≤ 0.25
9,WTHC,≤ 0.25
10,FSQL,≤ 0.25
11,NIFY,≤ 0.25
12,NKTC,≤ 0.25
13,HRHH,≤ 0.25
14,HIRS,≤ 0.25
15,FSTL,4.4
16,GADW,≤ 0.25
17,ACVH,≤ 0.25
18,TESQ,22.8
19,MGAF,≤ 0.25
20,SSDV,≤ 0.25
21,NWHH,≤ 0.25
22,IYFC,≤ 0.25
23,YRQA,≤ 0.25
24,LTAY,≤ 0.25

row,Variant,enrichment ratio
1,PMNV,≤ 0.25
2,IGTM,≤ 0.25
3,DYVN,≤ 0.25
4,GPTH,≤ 0.25
5,YAPW,≤ 0.25
6,LECE,≤ 0.25
7,KRTL,≤ 0.25
8,KPWI,≤ 0.25
9,HDIG,≤ 0.25
10,TGDG,1.47
11,SDES,≤ 0.25
12,GPFE,≤ 0.25
13,DEIS,≤ 0.25
14,KPRN,≤ 0.25
15,VRSM,≤ 0.25
16,TGDI,≤ 0.25
17,YRWH,≤ 0.25
18,CVYF,≤ 0.25
19,LVQY,≤ 0.25
20,MGHD,≤ 0.25
21,ALSS,3.53
22,PWMP,≤ 0.25
23,LYFC,≤ 0.25
24,CGFN,≤ 0.25

row,Variant,enrichment ratio
1,TAMG,17.2
2,GASA,3.66
3,AEMH,36.8
4,HLMK,≤ 0.25
5,KYLW,≤ 0.25
6,TSLA,16.6
7,SWIK,≤ 0.25
8,RTLF,≤ 0.25
9,YNAG,≤ 0.25
10,DHKS,≤ 0.25
11,TILW,≤ 0.25
12,NYPY,≤ 0.25
13,SWDW,≤ 0.25
14,SDLN,4.44
15,MGFK,≤ 0.25
16,NMFW,≤ 0.25
17,ILIC,≤ 0.25
18,PCYK,≤ 0.25
19,MMYR,≤ 0.25
20,IWMI,≤ 0.25
21,PILI,≤ 0.25
22,ITDS,≤ 0.25
23,MGQF,≤ 0.25
24,NQNL,≤ 0.25

row,Variant,enrichment ratio
1,HKRL,≤ 0.25
2,ECDK,≤ 0.25
3,SIGF,8.62
4,IIWH,≤ 0.25
5,YHRC,≤ 0.25
6,ACAI,1.04
7,SMPM,≤ 0.25
8,RWCA,≤ 0.25
9,GHQH,≤ 0.25
10,QPTG,≤ 0.25
11,PFIQ,≤ 0.25
12,MDLR,≤ 0.25
13,PCID,≤ 0.25
14,GDCG,≤ 0.25
15,WLWE,≤ 0.25
16,SPYE,≤ 0.25
17,FESF,≤ 0.25
18,QYIW,≤ 0.25
19,YGIY,≤ 0.25
20,VYFW,≤ 0.25
21,RHAD,≤ 0.25
22,YALA,1.77
23,TVRD,≤ 0.25
24,AGEG,≤ 0.25

row,Variant,enrichment ratio
1,LPYN,≤ 0.25
2,ISGL,≤ 0.25
3,KTSC,≤ 0.25
4,VITD,≤ 0.25
5,VGGK,≤ 0.25
6,ETCM,≤ 0.25
7,DNMV,≤ 0.25
8,MQTW,≤ 0.25
9,SWIL,2.05
10,VCLR,≤ 0.25
11,QVSL,1.9
12,TTKQ,1.94
13,FNPG,≤ 0.25
14,FDWA,≤ 0.25
15,TTCD,4.79
16,ITIQ,≤ 0.25
17,LFPF,≤ 0.25
18,MDCF,≤ 0.25
